# Data taken from PubChem BioAssay AID1347044 (National Center for Advancing Translational Sciences (NCATS), 2019).
# The other results are listed elsewhere or left out. Shown are side measurements of this screen, not its main read-out; they come without a call. Most of these compounds were active or inconclusive in the main read-out, so they are no random draw. Words in brackets tell the shape of the fitted curve; partial curves, single points and poor fits give uncertain potencies.
# Assay: Natriuretic polypeptide receptor (hNpr1) antagonism - Confirmation; further: nearly all actives have a fitted effect of over 70% in size
# Conditions: HEK293 hNpr1 cGMP GloSensor luminescence, ANP-stimulated; measured here: HEK-hNpr1 cytotoxicity, CellTiter-Glo
# In short: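 HEK293 cells expressing hNpr1 and the pGS-40F GloSensor cGMP sensor, loaded with 2% GloSensor reagent for 2 h, then treated 30 min with compound at room temperature. Luciferase luminescence read before and 20 min after 0.1 nM hNppA stimulation.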
# Tags describe the fitted curve by direction and shape.
row,SMILES,CC50
1,COc1cccc(NC(=O)c2ccc(-c3nnc4ccc(NC(=O)C5CCC5)cn34)cc2)c1,"9.68 µM [falling, full curve]"
2,COc1ccc(CNC(=O)c2ccc(Cn3ccn4nc5c(c4c3=O)CCCC5)cc2)cc1OC,"24.3 µM [falling, partial curve]"
3,CCOC(=O)C1=CN(CC(=O)Nc2c(C)cc(C)cc2C)S(=O)(=O)N=C1C,"21.7 µM [falling, partial curve]"
4,COc1ccc(-c2noc(CC3CCN(C(=O)Cc4ccccc4)CC3)n2)cc1,"27.3 µM [falling, partial curve]"
5,COc1ccc(-c2noc(CC3CCN(C(=O)COc4ccc(C)cc4)CC3)n2)cc1,"13.7 µM [falling, partial curve]"
6,O=C(N1CCC(n2cc(-c3nc(-c4ccccc4)no3)nn2)CC1)C1(c2ccccc2)CC1,"27.3 µM [falling, partial curve]"
7,COc1cccc([S+](=O)([O-])N2CCC3(CC2)C(=O)Nc2ccccc23)c1,"31.4 µM [falling, partial curve]"
8,O=C(NCC1CC1)c1nc2c(o1)CCN(Cc1ccc3c(c1)CCO3)CC2,"35.3 µM [falling, partial curve]"
9,O=C(c1cc(Cl)ccc1F)N1CCN(C(=O)c2nnn3c2COC(c2ccccc2)C3)CC1 (configuration not stated),"24.3 µM [falling, partial curve]"
10,COc1ccc(S(=O)(=O)N[C@H]2C[C@@H](c3nc(-c4ccc(OC(F)(F)F)cc4)no3)N(C)C2)cc1,"19.3 µM [falling, partial curve]"
11,COc1cccc(CC(=O)N2CCN(C(=O)c3nnn4c3COC(c3ccc(C)cc3)C4)CC2)c1 (configuration not stated),"24.3 µM [falling, partial curve]"
12,COc1ccc(-c2noc(CC3CCN(C(=O)Cc4ccc(OC)c(OC)c4)CC3)n2)cc1,"4.85 µM [falling, full curve]"
13,O=C(c1cc2n(n1)CC(c1ccc(Cl)cc1)OC2)N1CCN(c2ccc(Cl)cc2)CC1 (configuration not stated),"27.3 µM [falling, single point]"
14,Cc1c(C(C)NC(=O)c2cc(CC(C)C)nn2C)cnn1-c1ccccc1 (configuration not stated),"0.385 µM [falling, full curve]"
15,Cc1cccc(CNC(=O)c2csc(N3CCN(c4ccccc4)CC3)n2)c1,"27.3 µM [falling, partial curve]"
16,OC1CC(c2cc(N3CCC(CCn4cccn4)CC3)ncn2)C1 (configuration not stated),"6.11 µM [falling, partial curve]"
17,Cc1ccccc1C(=O)N1CCN(C(=O)c2nnn3c2COC(c2ccc(Cl)cc2)C3)CC1 (configuration not stated),"21.7 µM [falling, partial curve]"
